# In PubChem BioAssay AID686971 (National Center for Advancing Translational Sciences (NCATS), 2013):
# Among all 360,000 compounds or so, about 7,500 (2.1%) were called active. Inconclusive results, whose numbers are uncertain, are shown with a selection of clear calls. Calls follow the shape of the dose curve; as a rule, active = well fitted cell-killing curve with a large enough effect; inconclusive = small, poorly fitted or top-dose-only effect, or effect the other way, or another doubt; inactive = no such curve, though single readings can be large or run the other way. Potencies of inconclusive entries are left out as doubtful fits.
# Test: qHTS for induction of synthetic lethality in tumor cells producing 2HG: qHTS for the HT-1080-IDH1KD cell line;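 as to activity, negative = toxicity: 0% = DMSO wells and -100% = cell-free medium wells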
# Conditions: HT-1080 IDH1 knockdown viability, ATP luminescence, 48 h; activity, negative = toxicity: at 46.1 µM (top of the series) unless noted
# Procedure, shortened: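 Cytotoxicity counter-line: IDH1KD HT-1080, 48 h, CellTiter-Glo. Curves classed by r2, magnitude and activity.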
# Potency is read from the fitted curve at half-maximal effect; tags tell the direction and shape of the fitted curve.
Compound,Potency,"activity, negative = toxicity"
C[C@]12CC[C@@H]3c4ccc(O)c(O)c4CC[C@H]3[C@@H]1CC[C@@H]2O,"inconclusive [cytotoxic, single point]",
COC12CCC3(CC1C(C)(O)C(C)(C)C)[C@H]1Cc4ccc(O)c5c4[C@@]3(CCN1CC1CC1)C2O5 (some centres not stated),"inconclusive [cytotoxic, single point]",
COc1ccc(NC2=CC(=O)CC(c3ccccc3)C2)c(OC)c1 (configuration not stated),active: 2.51 µM,
O=C1NC(=O)N(Cc2ccco2)C(=O)/C1=C/C=C/c1ccco1,active: 20.6 µM,
CC/C=C/CC(=O)N[C@@H](c1ccccc1)[C@@H](O)C(=O)O[C@H]1C[C@@]2(O)[C@@H](OC(=O)c3ccccc3)C3[C@](C)(C(=O)[C@H](OC(C)=O)C(=C1C)C2(C)C)[C@@H](O)C[C@H]1OC[C@@]31OC(C)=O (some centres not stated),active: 0.0052 µM,
c1ccc2c[n+](CCCCCCCCCC[n+]3ccc4ccccc4c3)ccc2c1,"inconclusive [cytotoxic, partial curve, poor fit]",
CC#CP(=O)(OC)C(O)(CF)c1ccccc1 (configuration not stated),inactive,
Cc1ncc(CN2CCCC(C(=O)c3sccc3C)C2)s1 (configuration not stated),inactive,
CC[n+]1c(-c2ccccc2)c2cc(N)ccc2c2ccc(N)cc21,active: 16.4 µM,
N#Cc1ncc(N=Cc2ccc(N(CCCl)CCCl)cc2)s1,active: 10.3 µM,
Oc1ccc(O)c2c1C1(Cl)C(Cl)=C(Cl)C2(Cl)C1(Cl)Cl,active: 23.1 µM,
c1ccc(-c2ccc(-c3n(-c4ccccn4)c4ccccc4[n+]3-c3ccccn3)cc2)cc1,"inconclusive [cytotoxic, single point]",
CCN(CCCl)c1cc(CN(C)C)cc(NC(=O)c2ccc(C(=O)Nc3cc(CN(C)C)cc(N(CC)CCCl)c3)cc2)c1,active: 2.91 µM,
COC(=O)[C@H]1[C@H]2C[C@@H]3c4[nH]c5cc(OC)ccc5c4CCN3C[C@H]2C[C@@H](OC(=O)/C=C/c2cc(OC)c(OC)c(OC)c2)[C@@H]1OC,"inconclusive [cytotoxic, partial curve]",
C=CCn1c(O)c(C(C)=Nc2ccc(N(CC)CC)cc2)c(=O)[nH]c1=O,"inconclusive [cytotoxic, single point]",
CC1(C)Cc2c(c(N3CCOCC3)nc3snc(N)c23)CO1,active: 20 µM,
CC(C)(C)n1nnnc1C(CCc1ccccc1)N1CCC2(CC1)C(=O)NCN2c1ccccc1 (configuration not stated),"inconclusive [cytotoxic, single point]",
CC(C)(C)n1nnnc1C(c1cc2ccccc2o1)N1CCC2(CC1)C(=O)NCN2c1ccccc1 (configuration not stated),"inconclusive [cytotoxic, single point]",
ClCCOCCCl,inactive,
NC(Cc1ccc(F)cc1)c1csc(Nc2cnccn2)n1 (configuration not stated),inactive,
CCOC(=O)c1cccc(-[n+]2c(-c3ccccc3)cc(-c3ccccc3)cc2-c2ccccc2)c1,active: 18.4 µM,
COC(=O)C1=C(c2ccc(Cl)c(C(F)(F)F)c2)C[C@@H]2CC[C@H]1N2C(=O)NC1CCCCC1,"inconclusive [cytotoxic, single point]",
c1ccc(CCCN2CCN(CCOC(c3ccccc3)c3ccccc3)CC2)cc1,active: 23.1 µM,

Compound,Potency,"activity, negative = toxicity"
COC(=O)C1=C(c2ccc(OCc3ccccc3)cc2)C[C@@H]2CC[C@H]1N2C(=O)NCCc1ccc(F)cc1,"inconclusive [cytotoxic, single point]",
CCCCCCOc1ccc(CN2CCN(C)CC2)cc1,"inconclusive [cytotoxic, single point]",
Cc1cccn2c(=O)c3cc(C(=O)N4CCC5(CC4)OCCO5)n(C)c3nc12,active: 13 µM,
CCOC(=O)C1=C(N)Oc2ccccc2C12C(=O)N(CC(=O)OC)C(CC(=O)OC)=C2C(=O)OC (configuration not stated),,inconclusive: 7.75%
COc1ccc(OCC(=O)N2CCN(C3CCC(c4ccccc4)CC3)CC2)cc1 (configuration not stated),inactive,
COC(=O)C1=C(c2ccc(OC)c(OC)c2)C[C@@H]2CC[C@H]1N2C(=O)NCCOc1ccccc1,inactive,
O=c1c(C=NCCN2CCNCC2)c(O)n(C2CCCCC2)c(=O)n1C1CCCCC1,"inconclusive [cytotoxic, single point]",
O=C(CN1CCN(CCO)CC1)Nc1ccc(Cl)cc1C(=O)c1ccccc1,"inconclusive [cytotoxic, single point]",
COC(=O)c1c(C)n(Cc2ccc3c(c2)OCO3)c2ccc(O)cc12,"inconclusive [cytotoxic, partial curve]",
S=P1(Oc2ccccc2)Nc2ccccc2N1,inactive,
CCCCC(=O)N/N=C/c1c(O)n(CCC2=CCCCC2)c(=O)[nH]c1=O,"inconclusive [cytotoxic, single point]",
COCCCNC(=O)c1c(NC(=O)c2ccccc2Cl)n(Cc2ccccc2)c2nc3ccccc3nc12,inactive,
CC(=O)Nc1ccc(OCC(O)Cn2c3ccccc3c3ccccc32)c(C)c1 (configuration not stated),"inconclusive [cytotoxic, single point]",
COC(=O)C1=C(c2ccc(-c3ccccc3)c(F)c2)C[C@@H]2CC[C@H]1N2C(=O)N1CCCCC1,active: 20.6 µM,
CCOC(=O)[C@]12Cc3ccccc3[C@H]1N(C(C)C)C(=O)c1cc(OC)ccc12,active: 16.4 µM,
CN1CCN(CCOC2c3ccccc3CSc3ccc(Cl)cc32)CC1 (configuration not stated),"inconclusive [cytotoxic, single point]",
CN1C(=O)C(=Cc2ccccc2OCCOc2ccc([N+](=O)[O-])cc2)C(=O)N(C)C1=O,"inconclusive [cytotoxic, single point]",
O=c1c(C=Nc2cccnc2Cl)c(O)n(CCCCl)c(=O)n1C1CCCCC1,inactive,
CCOC(=O)[C@]12Cc3cc(Cl)ccc3[C@H]1N(C(C)C)C(=O)c1ccccc12,active: 3.26 µM,
Cc1cc(S(=O)(=O)NC(C)C)ccc1OCC(=O)N1CCN(Cc2ccc3c(c2)OCO3)CC1,"inconclusive [cytotoxic, single point]",
FC(F)(F)c1ccc(-c2ccc3c(c2)CNCc2cnnn2-3)cc1,"inconclusive [rising, single point]",
CCOC(=O)c1c(-n2c(C)cc(/C=C3/C(=O)NC(=O)N(CC)C3=O)c2C)sc2c1CCCC2,inactive,
O=c1c(O)c(-c2ccc(O)c(O)c2)oc2cc(O)cc(O)c12,"inconclusive [cytotoxic, partial curve]",

Compound,Potency,"activity, negative = toxicity"
O=C(NCCN1CCC(n2c(=O)[nH]c3ccccc32)CC1)c1ccc2ccccc2c1,"inconclusive [cytotoxic, single point]",
CCCCCn1c(N)c(C(=O)NCCN2CCOCC2)c2nc3ccccc3nc21,active: 18.4 µM,
COc1ccc(OC(=O)Nc2ccc([N+](=O)[O-])cc2OC)cc1,"inconclusive [cytotoxic, partial curve]",
CCOC(=O)C(O)(c1ccc(N=c2ccccn2C)cc1)C(F)(F)F (configuration not stated),inactive,
CCOc1cc(CNCCc2c[nH]c3ccccc23)cc(Cl)c1OCC,"inconclusive [cytotoxic, single point]",
CCCCn1c(NS(=O)(=O)c2ccccc2)c(C(=O)OCC)c2nc3ccccc3nc21,inactive,
COc1cc2c(cc1OC)CN(c1ccc([N+](=O)[O-])c(C(F)(F)F)c1)CC2,"inconclusive [cytotoxic, single point]",
COc1cccc(C(c2nnnn2C(C)(C)C)N2CCC3(CC2)C(=O)NCN3c2ccccc2)c1OC (configuration not stated),"inconclusive [cytotoxic, single point]",
COC(=O)C1=C(c2ccc(OC)c(OC)c2)C[C@@H]2CC[C@H]1N2C(=O)N1CCC(C)CC1,inactive,
Cc1nc(C)n(CC(O)COc2ccc3cc(Br)ccc3c2)n1 (configuration not stated),"inconclusive [cytotoxic, single point]",
Cn1cccc1C1CCCN1CC(=O)Nc1ccc(C#N)c(Cl)c1 (configuration not stated),inactive,
COC1C(OC(=O)c2ccc(C)[nH]2)C(O)C(Oc2ccc3c(O)c(NC(=O)c4ccc(O)c(CC=C(C)C)c4)c(=O)oc3c2Cl)OC1(C)C (configuration not stated),"inconclusive [cytotoxic, single point]",
O=c1c2ccccc2nc(/C=C/c2ccc(O)cc2)n1-c1cccc(O)c1,"inconclusive [cytotoxic, single point]",
CCN(CC)c1ccc(N=Cc2c(O)n(-c3ccccc3C)c(=O)[nH]c2=O)cc1,"inconclusive [cytotoxic, single point]",
N=c1sc2c(n1Cc1ccccc1)CCCC2,"inconclusive [cytotoxic, partial curve]",
COc1ccc(-c2csc(Nc3ccc(S(N)(=O)=O)cc3)n2)cc1,active: 17.8 µM,
O=C(CCc1ccccc1)N1Cc2cc(-c3ccccc3)ccc2-n2nncc2C1,"inconclusive [cytotoxic, single point]",
c1ccc2c(CNC3CCCCC3)c[nH]c2c1,"inconclusive [cytotoxic, single point]",
CCn1nc(-c2cccs2)nc2c(=O)n(C)c(=O)nc1-2,active: 2.59 µM,
CCN(CC)C(=O)Cn1cc(/C=C2\C(=O)NC(=O)N(c3ccccc3F)C2=O)c2ccccc21,"inconclusive [cytotoxic, single point]",
CN(C)C(=O)Oc1ccc(OC(=O)c2ccccc2)cc1,"inconclusive [cytotoxic, single point]",
